# Read counts are not given, so values of variants with three or more changes are uncertain.
# B1: LINE1-mini (parent)
# chain: GGCAGAGCUCAACACAGCGUGGCAAAGUGGCUGUGGCUAGACUGCC
# Variants of: B1
# Experiment: self-cleavage, relative activity (ratio to wild type); higher = more cleavage; in vitro, sequencing; the parent is a self-cleaving ribozyme
row,Variant,self-cleavage
1,GGCAGAACUCAACACAGCAUGGCAAAGUGGCUGUUGCUAGACUGCC,0.55
2,GGCAGAACUCAACACAGGGUGGCAAAGUGGCUAUGGCUAGACUGCC,0.09
3,GGCAGAGCUCAACACAGCGUGGCACACUGGCUGUGGCUAGACCGCC,0.01
4,GGCAGAGCUCAACACAGCGUGGCAACGUGGCUCUGGAUGGACUGCC,0.01
5,GGCAGAGCACCUCACCGCGUGGUAAAGUGGCUGUGGCUAGACUGCC,0
6,GGCAGAGCUCAAAACAGCGUGUCAGAGUGGCUGUGGCUUGACUCCC,0
7,GGCAGAGUUCAACACAGCGGGGCAAAGUUGCUGUGGCUAGACUGCC,0.19
8,GGCAGAGCACAACACGGCGUGGCAAAGUGGCUGUGGCUAGACUUCC,0.03
9,GGCAGCGCUCAACACAGCGUGGCUAAGUCGCUGUGGCUGGACUGCC,0.05
10,GGCACAGCUCAACACAGCGUGGCAAAGUGACUUUGGCUAGAGUGUC,0.1
11,GUCAGAUCUCAAAACUGCGAGGCAAAGAGGCUGUGGCUAGACUGCC,0.02
12,GGCAGAGCUCAACACGGAGUGGCAAAGUGGCUGAGGCUGGACUGCC,0.05
13,GGCAGAGAUCAACACAGCGUGGCAAUGUGGCUGUGGCUAGAGUGCC,0.08
14,GGCAGAGCUCAACACAGCGUGGCACAAUGGUUGUGGCUAGACUGCC,0.36
15,GGCAAAGCUCAACACAGCGCGGCAAAGUGGCUGUGGCUACACUGCC,0.01
16,GGCAGAGCUCAACACAGCGGGUCAAAGUGCCUGUGGCAAGUCUGGC,0.04
17,GGCAGAGAUCAAAACAGCGUGGCCAAGUCGCUGUGGCUAGACUGUC,0.18
18,GGCAGAUCUCUACACAGGGUGGCAAAGUGGCAGAGGCUAGACUGCC,0.01
19,GGCAAAGCUCAACACAGCGUGGCAAAGUGGCUGUUGCUUGAUUGCC,0.21
20,AGCAGAGCUUAACACAGCGUGGCAAAGUGGCUGUGGCUAGACUGGC,0.37
21,GGCAGAGCUCAACACAACGUGGAAAAGCAGCUGUGGCUAGACUGCC,0.42
22,GGCAUAGCUCAACACAGCGUGGCAAAGUAGCUGUGUCUAGACUGCC,0.04
23,GGCGGAGCUCAACACAGCGUGGCGAAGUGGCUCUGGCUAGACUGCC,0

row,Variant,self-cleavage
1,GUCAGCGCUCAACACAGCGUGUCAAAGGGGCUGUGACUAGACUGCC,0.02
2,GGCAGAGCUAAACGCAGCGUGGAGAAGUGGCUGUGGCUAGACUGCC,0.02
3,GGCAGUGCUCUAGACAGGGUGGCAUAGUGGCUGUGGCUAGACUGCC,0
4,GGUAGAGCUCAAAACAGCGUGGCAAAGUGGCUGUAGCUAGACCGCC,0.01
5,GGCAGAGCUCAACACAGCGUGGCAAAGUGGCUGUUGUUAGACAUCC,0.01
6,GUCAGAGCUCAAAACAGCGUGGCUAAGUUGCUGUGGCUAGAAUGCC,0.01
7,AUCAGAGCUCAACACAUCGUGACAAAGUGGCUGUGGCUAGACUGCC,0.04
8,GGCAGAGCUCAACACAGCGGGGCAAAGUGGCUGUGGCUAGAGGGCC,0.04
9,GGCAGAGCUCAACACACCCUGGCAAAGUGGCAGUGGCUAAACUGCC,0.04
10,GGCAGAUCUCAACACAGCGUGGCAUAGUGGCUGUGGCAAGACUGCC,0.03
11,GGCAGAGCUCAACACAACGUGGCUAAGUGUCUGUGGCUAGACAGCC,0.04
12,GGCAGUGCACAACACAGCGUUGCAAAGUGACUGUGGCUAGACUGCC,0.16
13,GGCAGGGCUCAACACAGCGUAGCAAAGUAGCUGGGGCUAAACUGCC,0.01
14,GGCAGAGCUCAAUACAGCGUGGCAAAGUAGCUGUGGCUAGCCUGCC,0.04
15,CUCAGAGCUCAAUACAGCGUGGCAAAGUGCCUGUGGCUAGACUGCC,0.02
16,GGGAGAGCUCAACUCAGCGUGGCAAAGUGGCGGUGGCUAGACUGCC,0.08
17,GGCAUAGCUCAACACAGCGUGGCAAAGUGGUUGUUGCUAGGCUGCC,0.02
18,GGCAGGGGUCAACACAGAGUGCCAAAGUGACUGUGGCUAGACUGCC,0.04
19,GGCAGAGCUCAUCACAGCGGGGGAAAGUGUCUGUGGCUGGACUGCC,0.01
20,GGCAGAGCUCAAAACAGCGUGGCAAAGUGGCCGUGGCUAGACGGCC,0.01
21,GGCAGAGCACGGCCCAGCGUGGCAAAGUGGCUGUGGCUAGACUGCC,0.02
22,GGCAGAGCUCAACAAAGCGUGUCGAAGUGGCUGUGGCUAUACUGCC,0.09
23,GGCAGAAUUCAACACAGCGUGGCAAAGUGGCUGUGGCGAGACUGCC,0.05

row,Variant,self-cleavage
1,GGCAGAGCUCACCACAGCGUGGCAAAGUGGCUGCGGCUAGACUGCU,0.03
2,CGCAGAGCUCAACACGGCGCGGCAAAGUGGCUGUUGCUAGACUGCC,0.01
3,GGCAGAGCUCAAUACAGCGUGGCAAAGUCGCUGUGGCUCGACUGCA,0.02
4,GGCAGAGCUCAACAUAGCGUGGGAAAGUGACUGUGGCUAGACGGCC,0.11
5,GGCAGAGCUCAACACAGCGUGGCAAAGUUGCGGUGGCUAGCCUGAC,0.01
6,GGCAUAGCUCAACACAGCGUGGCCAAGUGGCGGUGGCUAGACUGCC,0.03
7,GGCAGAGCGUAACACAGCGUGGCAAAGUAGCUGUGGCUAGACUGCC,0.07
8,GGCAGAACUAAACACAGCGUCGCAAAGUGGCUGUGGCUAGACGGCC,0
9,GGCAGAGCUCACCACAGCGUGGCAAUGUGGCAGUGGCUAGACUGCC,0.02
10,GGCAGAGCUCAACACACCGAGGCGAAAUGGCUGUGGCUAGACUGCC,1.37
11,GGCAGAGCUCAACACAGCGUUGCAAAGUAGCUGUGGCUAUACUGCC,0.11
12,GGCAAAGCUCAACACAGCGUGGCAAGGUGGCUGUGUCUAGACUGCC,0.04
13,GGCAGAGCUCAACACAGUGUGGCAGAGGGGCUGUGGCUAGACUGCC,0.38
14,GGCAAGGCUCAUCACAGCGUGGCAAAGUGGCUGUGGCUAGACUGCC,0.07
15,GGCCGAGCUCAACAUCGCGCGGCAAAGUGGCUGCGGCUAGACUGCC,0.04
16,GGCAGAGCUGAACACAGCGUGGCAAAGUGGAUGUGGCUAGACUCCC,0.04
17,GUCAGAGCUAAACACAGCAUGGCAAAGUGGCUGUGGCUAGACUGCG,0.01
18,GGCAGAGCUCAACACAGCCUGGCAGAGUGGCUGUGGCUAGACUGUC,0.19
19,GGCAGAACUCGACACAGCGUGGCAAAGUGGUAGUGGCUAGACUGCC,0.01
20,GGCAGAGCUCAAAACAGCGUGGCAAAGUCGCUGUGACUAUACUGCC,0.39
21,UGCAGACCUCAACACAGCGUGGCUGAGUGGCUGUGUCCAUACAGCC,0.06
22,AGCAUAGCUCACCACAGCGUGGCAAAGUGGCUGUGUCUAGACUGCC,0.03
23,GGCUGAGCUCAACAACGCGUGGCAAAGUGGCUGUGGCUAGACUGCC,0.09

row,Variant,self-cleavage
1,UUCAGAGCUCAACACAGCGUGGCAAAGUGGCAGUGGCUAGACUGUC,0.03
2,GGCAGAGCUCAGCACAGCGUGGCAAAGUGGCUUUAGCUAGACUGCC,0.06
3,GGCAGAGCUCAACACAGCGUGGCAAAAUGACUGUGAUUACACUGCC,0.3
4,GCCAGAGCUCAACACAGCGUGGCAAAGUGGCUGUGGCAAGACCGCC,0.35
5,GGCAGACCUCAACACAGCGUGGCACAGUUGCUGAGGAUAGACUGCC,0.06
6,GUCAGAGCUCAACCCAUCGUGGCAAAGUGGCUGUGGCUAGACUGCC,0.02
7,GCCAGAGCACAACACAGCGUGGCAAAGUGGCUGUCUCUAGACUGCC,0.01
8,GGCGGAGCUAAACAGAGCGUGGUAAAGUGGCUGUGGGUAGACUGCC,0.01
9,GGCAGAGCUAAACACAGGCUCGCAAAGUGGCUGUGGCUAGACUGCC,0.01
10,GGCUGAUCUCAACACAGCGUGGCAAAGUGGCUGUGGCUAGAGUGCC,0.03
11,GGCAGAGCACAACACAGCGUGCCAAGGUGGCCGUGGCUCGACUGCC,0.04
12,GGCAGAGCUCAACACAGCUAGGCAAAGUGGCUGUGGCUAGAUUGCC,0.06
13,GGCAGAGCUCACCUCAGCGUGGCAAAGUGGCUGUGGCUAGACUGCG,0.02
14,GGCAGAGCUCAACACAGCGUGGCAAAGUGGCUGUGGAUAAGCUGCC,0.06
15,GGCAGAGCUCAACACAGCGAGGCAGAGUGGCUGUGGCGAGACUGGC,0
16,GGCAGAGAUGAACACAGCGUGGCAAAGUGGCUGUGGCUAGACUGUC,0
17,GGCAGAGCUCAACACAUCGUGGCAAAUUGUCUGUGGCUAGACUGCU,0.23
18,GCCAGAGCUCAACACAGCGUAGCAAAGUGUCUGUGACUAGACUGCC,0.06
19,GGCAGAUCUCAACCCAGCGAGGCAAAGUGGCUGUGGCUAGACUGCC,0.01
20,GGCAGACCUCAACAGAGCGUGGCAAAGUGGCUGUGGCUAGACAGCC,0.48
21,GGCAGAGCUCAACACAGCGCUCCUAAGUGACUGUGGCGAGACUUCC,0.01
22,CGCAGAGCUCAACACAGCCUGGCAAAGUGGCUAUGGCUAGACUGCC,0.02
23,GGCCGAGCUCAACACAGCGUGGCAAAGUGGCUGUAACUAGACUGCC,0.04

row,Variant,self-cleavage
1,GGCAUAGCUCAACACAGCGUGGCAAAGUGGCUGUGGCAAGACUGCA,0.19
2,GGCAGAGCUCAACACAGUGGGGCAAAGUGGCUGUGGCUAGAGGGCC,0.14
3,AGCAUAGCUCAACACAACGUGGCUAAGUGGCUGUGGCUAGACUGCC,0.06
4,GGCAGAGCUCAACACGGCGUGGCAAAAUUACUGUGGCUAGACUGCC,0.1
5,GGGAAAGCUCAACACAGCUUGGCAAAGUGGCUGUGGCUAGACUGCC,0.2
6,GGCAGAGCUCAACACGGCGGGGCAAAAUGGCUGUGGCUAGACUGUC,0.36
7,GGCAGAUCUCAACACAGCGUGGCAAAGUGUCUGUGGUUCGACCACC,0.15
8,GCCAGAGCUCAACGCAGCGUGGCAACGUGGCUGUGGCUAGACUGCC,0
9,GGCUGAGCUCAACACCUCGUGGCAUAGUGGCAGGGGCUAGACUGCC,0.05
10,AGCAGAGCUCAACACAGACUGGCAAAGUGGCUGUGCCUAGACUGCC,0.04
11,GGAAGAGAUCAACACAGCGUGGCAAAGUGGCUGUGGCUAUACUCCC,1.06
12,GGCAGAGCUCAUCACAGUGUGGGAAAGUGGCUGUGGCUAGACUGCC,0.09
13,GGCAGAGCUCAACACGGCGUGGCAAAAUGGCUGUGUCUUGACUGCC,0.32
14,GGCAUAGCUCAACACAGCGUGGCAUAGUGGCUGUGGCUACACUGGC,0
15,GGCAGAGCUAAACACAGCAUGGCAAAGUGGCUUUGGCUAGACUCCC,0.01
16,GGCAGAGAUCAGCACAGCGUGGCAAAGUGGCAGAGGCUAGACUGCC,0.7
17,GGCAGAGCUCAACACAGGGUGGCAAAGUGGCUGUGGCUUGACUUCC,0.13
18,GGCAGAGCUCAACCCUGCGUCGCAAAGUGGCUUUGGCUAUACUGCC,0.02
19,GGCAGAGCUCAACAUAGCGUGGCAAACACGCUGUGGCUAGACUGCC,0.44
20,GGCAGAGCUCAACAAAGCGUGGCAGAGUGUCUGGGGAUAGACUGCC,0.22

# Reference: the RNAGym collection of RNA variant scans (doi:10.7554/elife.90254)
